# Measured values reported in publication PMC12529666.
# Only a part is listed here, and it is no random draw. At the low end of the ranking the order means little. This is one part of the list.
# Columns and labels:
# [1] = target: AGO2 WT (phosphosite mutant background) S387D + S824A + S828D + S831D + S834A (UniProt Q9UKV8); assay: RNA Bind-n-Seq (nitrocellulose filter binding and sequencing); conditions: constant regions annealed to DNA blockers; guide miR-122 5' phosphate; 30 mM Tris pH 8.0, 100 mM potassium acetate, 2 mM magnesium acetate, 0.5 mM TCEP, 0.005% NP-40, 0.01 mg/ml yeast tRNA; 3 nM AGO2-miR-122, 100 nM RNA library …; high values mean tight binding
# [2] = target: AGO2 F182del S387D + S824A + S828D + S831D + S834A + del182-182 (UniProt Q9UKV8); assay: as above; conditions: constant regions annealed to DNA blockers; guide miR-122 5' phosphate; 30 mM Tris pH 8.0, 100 mM potassium acetate, 2 mM magnesium acetate, 0.5 mM TCEP, 0.005% NP-40, 0.01 mg/ml yeast tRNA; 3 nM AGO2-miR-122, 100 nM RNA library …; high values mean tight binding
sequence,measurement,setting,value
GAGUUCUACAGUCCGACGAUCCCAACGCGCCUCACACCUGGAAUUCUCGGGUGCCAA / UGGAGUGUGACAAUGGUGUUUG / GATCGTCGGACTGTAGAACTC / TTGGCACCCGAGAATTCCA,binding signal (fold enrichment over input),[1],0.131
same,binding signal (fold enrichment over input),[2],0.304
GAGUUCUACAGUCCGACGAUCCCAACACGUUUCGCACCUGGAAUUCUCGGGUGCCAA / UGGAGUGUGACAAUGGUGUUUG / GATCGTCGGACTGTAGAACTC / TTGGCACCCGAGAATTCCA,binding signal (fold enrichment over input),[1],0.0857
same,binding signal (fold enrichment over input),[2],0.0575
GAGUUCUACAGUCCGACGAUCCCAACACACCUUGCACCUGGAAUUCUCGGGUGCCAA / UGGAGUGUGACAAUGGUGUUUG / GATCGTCGGACTGTAGAACTC / TTGGCACCCGAGAATTCCA,binding signal (fold enrichment over input),[1],0.105
same,binding signal (fold enrichment over input),[2],0.318
GAGUUCUACAGUCCGACGAUCCCAACACGUCUCACACCUGGAAUUCUCGGGUGCCAA / UGGAGUGUGACAAUGGUGUUUG / GATCGTCGGACTGTAGAACTC / TTGGCACCCGAGAATTCCA,binding signal (fold enrichment over input),[1],0.177
same,binding signal (fold enrichment over input),[2],1.38
GAGUUCUACAGUCCGACGAUCCCAACGCGCCCUACACCUGGAAUUCUCGGGUGCCAA / UGGAGUGUGACAAUGGUGUUUG / GATCGTCGGACTGTAGAACTC / TTGGCACCCGAGAATTCCA,binding signal (fold enrichment over input),[1],0.112
same,binding signal (fold enrichment over input),[2],0.0598
GAGUUCUACAGUCCGACGAUCCCAACGUGCCCCGCACCUGGAAUUCUCGGGUGCCAA / UGGAGUGUGACAAUGGUGUUUG / GATCGTCGGACTGTAGAACTC / TTGGCACCCGAGAATTCCA,binding signal (fold enrichment over input),[1],0.102
same,binding signal (fold enrichment over input),[2],0.0427
GAGUUCUACAGUCCGACGAUCCCAACACGCCCUACACCUGGAAUUCUCGGGUGCCAA / UGGAGUGUGACAAUGGUGUUUG / GATCGTCGGACTGTAGAACTC / TTGGCACCCGAGAATTCCA,binding signal (fold enrichment over input),[1],0.107
same,binding signal (fold enrichment over input),[2],0.0852
